No constants are given. Whether binding was seen depends on the method and setting. For part of these data: Binding seen in cells or lysates may run through a third protein. Some binding calls cover weakened binding; strength is not graded here. Where a sequence is shown, tags or fusion partners need not be part of it.
Experiments:
GST-RILP (mouse) [1] = biological target: T1, GST-RILP (mouse) (UniProt Q5ND29); test: pull-down; 5 μg GST-RILP on glutathione agarose beads, 4 h at 4 °C with vehicle (2 or 4% DMSO) or 200 μM peptide 1, peptide 2 or both, then 18 h with RBL cell lysate (500 μg), 0.5 mM GTPγS; blot anti-Rab12; only the target purified
T1 sequence: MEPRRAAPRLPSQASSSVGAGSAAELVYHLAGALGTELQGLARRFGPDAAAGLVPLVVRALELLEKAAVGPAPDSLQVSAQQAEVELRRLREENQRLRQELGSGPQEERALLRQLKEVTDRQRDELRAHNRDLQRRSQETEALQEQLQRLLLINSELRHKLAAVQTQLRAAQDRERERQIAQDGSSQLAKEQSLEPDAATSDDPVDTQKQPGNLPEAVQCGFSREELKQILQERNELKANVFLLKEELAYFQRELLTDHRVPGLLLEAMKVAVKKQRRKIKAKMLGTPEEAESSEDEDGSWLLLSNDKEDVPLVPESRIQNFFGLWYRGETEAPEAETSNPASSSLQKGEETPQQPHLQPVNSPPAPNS

GFP-RILP (mouse) = biological target: T2, GFP-RILP (mouse) (UniProt Q5ND29); test: co-IP; RBL cells co-transfected with pEGFP and pEF-T7 constructs; lysate (500 μg, buffer A: 50 mM Hepes pH 7.4, 250 mM NaCl, 1 mM MgCl2, 1% Triton X-100) immunoprecipitated overnight at 4 °C with rabbit polyclonal anti-GFP; blot with anti-T7 (Fig. 1a,b)
T2 sequence: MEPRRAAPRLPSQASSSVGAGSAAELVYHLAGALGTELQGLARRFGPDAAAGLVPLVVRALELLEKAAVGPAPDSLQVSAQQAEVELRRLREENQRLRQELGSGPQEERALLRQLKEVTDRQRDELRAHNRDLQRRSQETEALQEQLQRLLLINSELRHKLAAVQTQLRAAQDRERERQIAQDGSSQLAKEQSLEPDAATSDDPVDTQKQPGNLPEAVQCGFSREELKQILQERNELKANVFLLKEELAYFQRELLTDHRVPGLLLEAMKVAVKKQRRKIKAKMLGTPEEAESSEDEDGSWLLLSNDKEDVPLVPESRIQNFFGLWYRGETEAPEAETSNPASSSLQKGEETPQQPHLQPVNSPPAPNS

GFP-RILP-L2 (mouse) = biological target: T3, GFP-RILP-L2 (mouse) (UniProt Q99LE1); test: as above
T3 sequence: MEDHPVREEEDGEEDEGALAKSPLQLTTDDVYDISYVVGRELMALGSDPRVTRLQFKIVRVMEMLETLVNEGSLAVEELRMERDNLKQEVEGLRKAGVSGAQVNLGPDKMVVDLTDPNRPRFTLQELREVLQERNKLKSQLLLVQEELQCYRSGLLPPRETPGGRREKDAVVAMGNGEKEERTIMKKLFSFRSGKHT

GFP-RILP-L1 (mouse) = biological target: T4, GFP-RILP-L1 (mouse) (UniProt Q9JJC6); test: as above
T4 sequence: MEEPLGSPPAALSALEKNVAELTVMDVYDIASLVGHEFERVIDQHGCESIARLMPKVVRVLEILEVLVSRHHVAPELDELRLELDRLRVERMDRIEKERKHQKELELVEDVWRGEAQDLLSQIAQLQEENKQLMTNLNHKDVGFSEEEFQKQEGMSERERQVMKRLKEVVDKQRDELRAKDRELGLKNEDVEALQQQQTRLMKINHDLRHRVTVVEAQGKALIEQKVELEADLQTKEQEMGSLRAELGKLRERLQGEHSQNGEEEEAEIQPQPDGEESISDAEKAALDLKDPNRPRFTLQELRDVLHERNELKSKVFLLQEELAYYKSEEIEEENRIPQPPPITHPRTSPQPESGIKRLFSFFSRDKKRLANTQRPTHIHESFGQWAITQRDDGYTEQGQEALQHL

[2] = biological target: T5, RILP-L2 (yeast two-hybrid fusions) (mouse) (UniProt Q99LE1); test: two-hybrid; yeast with pGAD-C1 and pGBD-C1 constructs of RILP, RILP-L1 or RILP-L2; growth at 30 °C on SC-AHLW selection medium for one week (Supplementary figure S1)
T5 sequence: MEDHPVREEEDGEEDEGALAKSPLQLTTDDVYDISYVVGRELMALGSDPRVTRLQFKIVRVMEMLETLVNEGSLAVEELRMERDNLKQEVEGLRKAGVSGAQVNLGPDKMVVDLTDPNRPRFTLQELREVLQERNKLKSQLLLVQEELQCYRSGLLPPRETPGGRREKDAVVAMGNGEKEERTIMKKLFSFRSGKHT

T7-RILP-L2 (mouse) = biological target: T6, T7-RILP-L2 (mouse) (UniProt Q99LE1); test: co-IP; reciprocal: same co-transfected RBL lysates immunoprecipitated overnight at 4 °C with mouse monoclonal anti-T7; blot with anti-GFP (Fig. 1c,d)
T6 sequence: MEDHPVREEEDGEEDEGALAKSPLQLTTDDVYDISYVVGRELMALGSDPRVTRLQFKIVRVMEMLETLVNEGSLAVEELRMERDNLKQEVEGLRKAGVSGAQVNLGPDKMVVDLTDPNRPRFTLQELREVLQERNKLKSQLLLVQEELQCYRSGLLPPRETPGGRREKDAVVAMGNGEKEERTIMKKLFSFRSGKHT

GST-RILP (mouse) [3] = biological target: T1, GST-RILP (mouse); test: pull-down; GST-RILP, GST-RILP-L1 or GST-RILP-L2 on glutathione agarose beads incubated with RBL cell lysates (GFP fusions; Rab12), 18 h at 4 °C, 0.5 mM GTPγS (Supplementary figure S2); only the target purified

B1: peptide 2 (Rab12 amino acids 101 to 115) (peptide)
peptide: ERFNSITSAYYRSAK
binding (GST-RILP (mouse) [1]): binds

B2: T7-RILP-L2 (protein, UniProt Q99LE1 1-197)
chain: MEDHPVREEEDGEEDEGALAKSPLQLTTDDVYDISYVVGRELMALGSDPRVTRLQFKIVRVMEMLETLVNEGSLAVEELRMERDNLKQEVEGLRKAGVSGAQVNLGPDKMVVDLTDPNRPRFTLQELREVLQERNKLKSQLLLVQEELQCYRSGLLPPRETPGGRREKDAVVAMGNGEKEERTIMKKLFSFRSGKHT
binding (GFP-RILP (mouse)): no binding
binding (GFP-RILP-L2 (mouse)): binds
binding (GFP-RILP-L1 (mouse)): no binding

B3: RILP-L2 (yeast two-hybrid fusions) (protein, UniProt Q99LE1 1-197)
chain: MEDHPVREEEDGEEDEGALAKSPLQLTTDDVYDISYVVGRELMALGSDPRVTRLQFKIVRVMEMLETLVNEGSLAVEELRMERDNLKQEVEGLRKAGVSGAQVNLGPDKMVVDLTDPNRPRFTLQELREVLQERNKLKSQLLLVQEELQCYRSGLLPPRETPGGRREKDAVVAMGNGEKEERTIMKKLFSFRSGKHT
binding [2]: binds

B4: T7-RILP-L1 (protein, UniProt Q9JJC6 1-406)
chain: MEEPLGSPPAALSALEKNVAELTVMDVYDIASLVGHEFERVIDQHGCESIARLMPKVVRVLEILEVLVSRHHVAPELDELRLELDRLRVERMDRIEKERKHQKELELVEDVWRGEAQDLLSQIAQLQEENKQLMTNLNHKDVGFSEEEFQKQEGMSERERQVMKRLKEVVDKQRDELRAKDRELGLKNEDVEALQQQQTRLMKINHDLRHRVTVVEAQGKALIEQKVELEADLQTKEQEMGSLRAELGKLRERLQGEHSQNGEEEEAEIQPQPDGEESISDAEKAALDLKDPNRPRFTLQELRDVLHERNELKSKVFLLQEELAYYKSEEIEEENRIPQPPPITHPRTSPQPESGIKRLFSFFSRDKKRLANTQRPTHIHESFGQWAITQRDDGYTEQGQEALQHL
binding (GFP-RILP (mouse)): no binding

B5: GFP-RILP-L1 (protein, UniProt Q9JJC6 1-406)
chain: MEEPLGSPPAALSALEKNVAELTVMDVYDIASLVGHEFERVIDQHGCESIARLMPKVVRVLEILEVLVSRHHVAPELDELRLELDRLRVERMDRIEKERKHQKELELVEDVWRGEAQDLLSQIAQLQEENKQLMTNLNHKDVGFSEEEFQKQEGMSERERQVMKRLKEVVDKQRDELRAKDRELGLKNEDVEALQQQQTRLMKINHDLRHRVTVVEAQGKALIEQKVELEADLQTKEQEMGSLRAELGKLRERLQGEHSQNGEEEEAEIQPQPDGEESISDAEKAALDLKDPNRPRFTLQELRDVLHERNELKSKVFLLQEELAYYKSEEIEEENRIPQPPPITHPRTSPQPESGIKRLFSFFSRDKKRLANTQRPTHIHESFGQWAITQRDDGYTEQGQEALQHL
binding (T7-RILP-L2 (mouse)): no binding
binding (GST-RILP (mouse) [3]): no binding

B6: RILP-L1 (yeast two-hybrid fusions) (protein, UniProt Q9JJC6 1-406)
chain: MEEPLGSPPAALSALEKNVAELTVMDVYDIASLVGHEFERVIDQHGCESIARLMPKVVRVLEILEVLVSRHHVAPELDELRLELDRLRVERMDRIEKERKHQKELELVEDVWRGEAQDLLSQIAQLQEENKQLMTNLNHKDVGFSEEEFQKQEGMSERERQVMKRLKEVVDKQRDELRAKDRELGLKNEDVEALQQQQTRLMKINHDLRHRVTVVEAQGKALIEQKVELEADLQTKEQEMGSLRAELGKLRERLQGEHSQNGEEEEAEIQPQPDGEESISDAEKAALDLKDPNRPRFTLQELRDVLHERNELKSKVFLLQEELAYYKSEEIEEENRIPQPPPITHPRTSPQPESGIKRLFSFFSRDKKRLANTQRPTHIHESFGQWAITQRDDGYTEQGQEALQHL
binding [2]: no binding
